Some of the results follow. These are noisy estimates, calculated here from bound and input reads.

This experiment concerns the target T1, Pho4 (S. cerevisiae) (UniProt P07270).
T1 sequence: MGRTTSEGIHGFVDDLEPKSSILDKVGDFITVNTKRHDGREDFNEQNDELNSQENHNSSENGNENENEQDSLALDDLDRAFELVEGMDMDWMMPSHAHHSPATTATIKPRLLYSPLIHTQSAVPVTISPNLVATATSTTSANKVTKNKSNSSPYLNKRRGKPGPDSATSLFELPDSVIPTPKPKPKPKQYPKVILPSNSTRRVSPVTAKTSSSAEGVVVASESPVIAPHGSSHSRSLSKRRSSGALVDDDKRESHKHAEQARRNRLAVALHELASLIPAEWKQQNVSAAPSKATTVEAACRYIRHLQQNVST
Kind of experiment: relative binding free energy (BET-seq); higher = weaker binding. The settings on record: reference: library average.
Take TGGATCACGTGAAGTT: the “relative binding free energy” value came to 1.55 kJ/mol. Consider AATGGCACGTGGTGGT, for which the “relative binding free energy” value is -0.293 kJ/mol. On to TTTTACACGTGAATAT, for which the “relative binding free energy” value came out at 1.55 kJ/mol.

On to GTCTTCACGTGTGCGT, for which the “relative binding free energy” value was found to be 0.879 kJ/mol.

In the case of GTTGTCACGTGGTCGG, the “relative binding free energy” value was 0.293 kJ/mol. Then TAGGGCACGTGGACAT, with -0.628 kJ/mol; and GCGGACACGTGCGGGG, with 0.0418 kJ/mol. For the sequence TTCTGCACGTGGAAGT, the “relative binding free energy” value worked out at 0.293 kJ/mol. Then AAAGACACGTGTGTGA, with 0.167 kJ/mol; and TACATCACGTGATGGG, with 1.13 kJ/mol. To GCGGTCACGTGCGGGG belongs 0.167 kJ/mol. Then TGGATCACGTGAGGGG, with 1.38 kJ/mol. Take GCTCTCACGTGAGGGT: the “relative binding free energy” value amounted to 1.55 kJ/mol. As to GCAGGCACGTGGGGAT, the “relative binding free energy” value is -0.586 kJ/mol.

For CGTATCACGTGGAAGT, the “relative binding free energy” value was 1.09 kJ/mol. To GATTACACGTGTTGTG belongs 0.962 kJ/mol. In the case of ATGTTCACGTGGTCTG, the “relative binding free energy” value was 0.377 kJ/mol. Then AGTACCACGTGGGTTT, with -1.05 kJ/mol; and GTCGACACGTGTGGCG, with 0.669 kJ/mol; and TTGTACACGTGATATT, with 0.753 kJ/mol. To ACTCACACGTGGGGGG belongs -0.544 kJ/mol; to AAAAGCACGTGAGTAG, 1.21 kJ/mol.

In the case of GACTTCACGTGTATTT, the “relative binding free energy” value was determined as 1.3 kJ/mol. Then GGTCGCACGTGGGATT, with -0.209 kJ/mol. To GTTTGCACGTGAATGA belongs 0.962 kJ/mol; to GGTATCACGTGGCACT, 1.3 kJ/mol; to GTCGTCACGTGAGGGG, 0.837 kJ/mol. Then GGGGCCACGTGGTTGG, with -0.418 kJ/mol; and ACGGTCACGTGGGTCG, with -0.586 kJ/mol; and ATGAGCACGTGAGTGG, with 0.711 kJ/mol. As for GAATTCACGTGTTATG, the “relative binding free energy” value is 1 kJ/mol.

Consider TGTTCCACGTGTGAGT, for which the “relative binding free energy” value was found to be 0.544 kJ/mol. To GGGTTCACGTGTTGAA belongs 1.88 kJ/mol. Then ATCGCCACGTGTGGGG, with -0.711 kJ/mol; and AGGTACACGTGGGGTC, with -0.377 kJ/mol; and GAGGGCACGTGTTGTT, with -0.293 kJ/mol. Regarding GTGTGCACGTGGAGTA, the “relative binding free energy” value is -0.0418 kJ/mol. Take ATGGACACGTGTGTGT: the “relative binding free energy” value amounted to 0.0837 kJ/mol.

In the case of TCGGGCACGTGGTTAG, the “relative binding free energy” value is -1.09 kJ/mol. In the case of AGGGACACGTGTGCGT, the “relative binding free energy” value was 0 kJ/mol. Then CTAATCACGTGTGGGT, with 0.46 kJ/mol; and GGCGGCACGTGGAGGA, with -0.753 kJ/mol; and GGGACCACGTGAGGGG, with 0.879 kJ/mol.

TGCTTCACGTGGGAGT: the “relative binding free energy” value came out at 0.377 kJ/mol.

Consider TTATTCACGTGAAGTA, for which the “relative binding free energy” value worked out at 1.21 kJ/mol.

On to ATTAACACGTGAAGTG, for which the “relative binding free energy” value stood at 0.837 kJ/mol. For the sequence AGATGCACGTGTGGAA, the “relative binding free energy” value turned out to be 0.0837 kJ/mol. To AGTTGCACGTGGAAGA belongs 0 kJ/mol.

As to TTAAACACGTGTATGT, the “relative binding free energy” value stood at 0.126 kJ/mol. Then CTTGTCACGTGCGGTT, with -0.0418 kJ/mol; and TGTCCCACGTGGGGGG, with -1.17 kJ/mol. To TGTACCACGTGTTAGG belongs -0.502 kJ/mol; to TGATCCACGTGCGGGT, -0.126 kJ/mol; to ACTGGCACGTGAGGAG, 0.251 kJ/mol. As to TAGGTCACGTGACAGG, the “relative binding free energy” value was found to be 0.92 kJ/mol. Turning to CAATACACGTGTTGGT, the “relative binding free energy” value is -0.126 kJ/mol. For TATGTCACGTGTCGTA, the “relative binding free energy” value amounted to 0.46 kJ/mol. Then CGGGTCACGTGGTACA, with 0.46 kJ/mol; and ATTCTCACGTGGTTAT, with -0.126 kJ/mol. Consider TTTTTCACGTGTGGTT, for which the “relative binding free energy” value came to 1.21 kJ/mol. Consider CTGGGCACGTGCGTGT, for which the “relative binding free energy” value is -0.879 kJ/mol. Then TGGTGCACGTGTAAAG, with 0.544 kJ/mol; and TCGTACACGTGGGTCG, with -0.167 kJ/mol. Then AGGAACACGTGGCGTT, with 0.0418 kJ/mol; and AGTGGCACGTGAAATG, with 0.0418 kJ/mol. Then ACGTGCACGTGGCGGG, with -0.628 kJ/mol; and GGTTACACGTGGGGAC, with 0.628 kJ/mol.

As to GGGGTCACGTGGACCG, the “relative binding free energy” value turned out to be 0.167 kJ/mol. Then CTATTCACGTGTGGAT, with 0.502 kJ/mol; and ATAGTCACGTGATAGG, with 0.753 kJ/mol.

As to TTGCTCACGTGTTGAA, the “relative binding free energy” value worked out at 0.502 kJ/mol. Consider TGTTTCACGTGAAGCG, for which the “relative binding free energy” value turned out to be 1.59 kJ/mol. Regarding ATGTGCACGTGAGTTG, the “relative binding free energy” value is 0.795 kJ/mol. To GGGATCACGTGTTGCA belongs 0.502 kJ/mol. In the case of AGTTGCACGTGGTTGC, the “relative binding free energy” value is -0.0418 kJ/mol. Then GGTTACACGTGTGTGA, with 0.46 kJ/mol; and TCGTCCACGTGTTGTT, with 0.502 kJ/mol; and AGGGGCACGTGCCAGG, with -1.09 kJ/mol.

On to GTTGTCACGTGTGAAG, for which the “relative binding free energy” value stood at 0.795 kJ/mol. As for TACTGCACGTGGAGGC, the “relative binding free energy” value was found to be 0.586 kJ/mol. For TTCGTCACGTGGTTAT, the “relative binding free energy” value is 0.293 kJ/mol. Consider TGGTTCACGTGCTTAT, for which the “relative binding free energy” value came out at 1.09 kJ/mol. For the sequence AGTTGCACGTGTGAAG, the “relative binding free energy” value was 0.335 kJ/mol. On to AGTGCCACGTGTGGGC, for which the “relative binding free energy” value was -0.293 kJ/mol. To GGGTGCACGTGAAAGA belongs 1.09 kJ/mol; to ATTGTCACGTGGTTAA, 0.209 kJ/mol. To GTTATCACGTGCGCGT belongs 0.544 kJ/mol; to GTGGCCACGTGGTGAC, -0.0418 kJ/mol; to GTGGTCACGTGGATCA, 1.17 kJ/mol. On to TGGGCCACGTGGGATA, for which the “relative binding free energy” value was -0.711 kJ/mol.

ATTGACACGTGGGAAT: the “relative binding free energy” value was -0.502 kJ/mol. For CGGGGCACGTGGCAGG, the “relative binding free energy” value was -0.962 kJ/mol. To ATTGGCACGTGGATAG belongs 0 kJ/mol. Then TCTAGCACGTGGGTAT, with -1.34 kJ/mol; and TAAGGCACGTGAAATG, with 1.3 kJ/mol; and GTTGTCACGTGGAATA, with 0.544 kJ/mol. Then TTTTTCACGTGAGTTT, with 1.51 kJ/mol. Turning to ATGTTCACGTGAGTAT, the “relative binding free energy” value amounted to 1.05 kJ/mol. In the case of TTAGTCACGTGTGCTC, the “relative binding free energy” value was 0.628 kJ/mol.

With ATTGTCACGTGGGTAA, the “relative binding free energy” value is -0.0837 kJ/mol. To TATTCCACGTGTGGGT belongs 0.586 kJ/mol; to GTTGGCACGTGACGCG, 0.167 kJ/mol. Then TTATTCACGTGGGCGG, with 0.628 kJ/mol; and TGTGTCACGTGTACAA, with 0.544 kJ/mol. Take GGGGCCACGTGAATGG: the “relative binding free energy” value turned out to be 0.92 kJ/mol. With TGGGGCACGTGGTATG, the “relative binding free energy” value was -0.418 kJ/mol. To GTGTTCACGTGCGGCT belongs 0.753 kJ/mol; to TGAAACACGTGTGTGG, 0.167 kJ/mol; to AGGGACACGTGTATGT, 0 kJ/mol. TCAGTCACGTGGGGTT: the “relative binding free energy” value was -0.335 kJ/mol. As for GATTGCACGTGATGCG, the “relative binding free energy” value came out at 0.377 kJ/mol. As to ATGGTCACGTGGGGGG, the “relative binding free energy” value was -0.0837 kJ/mol.

On to AGGTGCACGTGGTGCA, for which the “relative binding free energy” value is -0.418 kJ/mol.

Consider TTGTACACGTGTTGCT, for which the “relative binding free energy” value turned out to be 0.126 kJ/mol. Then GAGTTCACGTGAGATT, with 2.09 kJ/mol.

The values above are taken from the BET-seq Pho4 binding data (Le et al. 2018).
